# Experimental data reported in PubChem BioAssay AID1346428 (National Center for Advancing Translational Sciences (NCATS), 2018).
# Where “and” joins values, the source holds several entries; their conditions need not be identical. Equal values may be shown once. Among all 48,000 compounds or so, about 1,200 (2.5%) were called active. Not shown: some 2% with an inconclusive outcome.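 The calls were made as follows: active = activation of at least 60% and not above a set upper limit (about 1 call in 100 departs from these limits); inconclusive = activation of 40% to 60%, or above that upper limit; inactive = activation under 40%.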 The list shows a part of the results.
# Target: Probable G-protein coupled receptor 32 (Homo sapiens) (UniProt O75388)
# UniProt O75388, sequence (O75388 whole entry, looked up): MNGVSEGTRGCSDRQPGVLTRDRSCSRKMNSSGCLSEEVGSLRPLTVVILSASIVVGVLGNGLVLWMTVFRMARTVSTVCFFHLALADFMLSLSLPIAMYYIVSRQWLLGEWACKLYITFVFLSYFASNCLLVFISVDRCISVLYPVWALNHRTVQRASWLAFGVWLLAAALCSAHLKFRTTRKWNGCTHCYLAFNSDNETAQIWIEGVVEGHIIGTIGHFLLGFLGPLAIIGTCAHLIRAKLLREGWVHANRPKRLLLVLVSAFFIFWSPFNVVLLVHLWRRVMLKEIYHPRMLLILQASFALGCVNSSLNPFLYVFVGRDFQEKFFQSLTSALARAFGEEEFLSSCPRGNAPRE
# Test: qHTS for Agonists of Human Resolvin D1 Receptor DRV1; also: 0% is about no effect
# Conditions: CHO-K1 GPR32 beta-arrestin PathHunter luminescence, 90 min; at 76.9 µM; stronger effect = higher value; zero percent set by DMSO-only wells
# Method in brief: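 CHO-K1 cells stably expressing ProLink-tagged GPR32 and Enzyme Activator-tagged beta-arrestin were seeded at 2,500 cells/well overnight, exposed to compounds for 90 min at 37 °C, then read by beta-Gal complementation chemiluminescence after 1 h detection reagent.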
row,Structure (SMILES),activation
1,COc1ccc(-c2noc(-c3ccc(NCc4cccnc4)c([N+](=O)[O-])c3)n2)cc1OC,inactive: -3.99%
2,Cc1ccccc1OCCn1c(=N)n(C(C)C)c2ccccc21,inactive: -7.57%
3,Cc1cc(NC(=O)c2cc(-c3cccc(Cl)c3)on2)n(-c2ccccc2)n1,inactive: -2%
4,CCOc1ccc(C2=CC(c3cccc(Br)c3)n3c(nc4ccccc43)N2)cc1Cl (stereo not drawn),inactive: -4.44%
5,Cc1cc(C)cc(-n2c(C)nc3cc(C(=O)O)ccc32)c1,inactive: 8.45%
6,Cc1cccc(OCc2nc(CC(=O)Nc3ccc(C)c(C)c3)cs2)c1,inactive: -6%
7,CCCn1c(CN2CCN(c3ccc(OC)cc3)CC2)nc2c1c(=O)[nH]c(=O)n2C,inactive: 10.8%
8,COc1cc(-c2cc3n(C)c(C)c(CCC(=O)O)c(=O)n3n2)cc(OC)c1OC,inactive: -5.23%
9,CCOc1ccc(NC(=O)C2CCN(C(=O)N3CC(C)Oc4ccc(Cl)cc43)CC2)cc1 (stereo not drawn),inactive: -7.91%
10,Cc1ccc(CNC(=O)CCC(=O)N2CC3CCCN3c3ccccc32)cc1 (stereo not drawn),inactive: -31%
11,CC(C)CC(=O)Nc1nnc(S(=O)(=O)N(CC(C)C)c2ccccc2)s1,inactive: -12.1%
12,Cc1cc2oc(C(=O)Nc3ccc(S(=O)(=O)N(C)Cc4ccccc4)cc3)cc(=O)c2cc1C,inactive: -12.9%
13,O=C(Nc1ccc2oc(-c3cc(Br)ccc3Cl)nc2c1)c1cc2ccccc2o1,inactive: -21.4%
14,Cn1c(=O)c2c(ncn2CC2OCCO2)n(C)c1=O,inactive: -2.8%
15,CCOc1cc2[nH]c(=O)n(CCC(=O)N3CCN(c4ccccc4)CC3)c(=O)c2cc1OCC,inactive: -3.88%
16,COC(=O)c1c(NC(=O)CS(=O)(=O)c2ccc(C)cc2)sc2c1CCCCC2,inactive: -43.5%
17,Cc1ccc(-n2nc3c(N4CCCC(C(=O)NCc5ccccc5C)C4)nnc(C)c3c2C)cc1 (stereo not drawn),inactive: -14.9%
18,COc1cccc(C(=O)NCc2cn3cccc(C)c3n2)c1,inactive: -7.81%
19,Cn1c(=O)n(C)c2cc(CNCc3ccccc3Cl)ccc21,inactive: 11.9%
20,Cc1ccc2scc(N3CCCC(C)C3)c(=O)c2c1 (stereo not drawn),inactive: 5.89%
21,CCCn1c(=N)c(C(=O)NC(C)c2ccccc2)cc2c(=O)n3ccccc3nc21 (stereo not drawn),inactive: 0.21%
22,O=C(c1ccc(Cl)cc1)n1nc(-c2ccccc2)nc1NCc1ccco1,inactive: -20.4%

row,Structure (SMILES),activation
1,COc1ccc2c(c1)c1c(c(=O)n(-c3cc(Cl)ccc3C)c(=O)n1Cc1ccc(F)cc1)n2C,inactive: -2.34%
2,CCOc1ccc(S(=O)(=O)Nc2cc3c(C(=O)OCc4ccccc4)c(C)oc3c3ccccc23)cc1,inactive: 12.6%
3,CCOc1ccc(NC(=O)c2nn(C)c3c2COc2ccccc2-3)cc1,inactive: -27.8%
4,CC(C)c1ccc(NC(=O)CSC2=Nc3ccccc3C3=NC(CCC(=O)NCc4cccs4)C(=O)N23)cc1 (stereo not drawn),inactive: -28.6%
5,Cc1ccc(NC(=O)N2CCN3CCCCC3C2)cc1C (stereo not drawn),inactive: 0.413%
6,Cc1c(Cl)cccc1-n1ncc(C(=O)NC2CCCC2)c1C1CCN(C(=O)OC(C)(C)C)CC1,inactive: -11.1%
7,Cc1cc(C)c(-c2n[nH]c3c2C(c2ccccc2F)N(CCO)C3=O)c(O)c1 (stereo not drawn),inactive: -5.54%
8,CCCOC(=O)c1c(-c2ccccc2)c(-c2ccccc2)nn(C)c1=O,inactive: -18.8%
9,CC(=O)c1c(C)n(-c2cccc(Cl)c2)c2ccc(OC(=O)c3ccccc3)cc12,inactive: 3.02%
10,COc1ccccc1C(=O)OCc1cc(=O)n2c(C)csc2n1,inactive: 36.6%
11,CCSc1ncc(Cl)c(C(=O)Nc2cc(C)ccc2C)n1,inactive: -2.64%
12,CC1=NS(=O)(=O)c2cc(Cl)ccc2N1,inactive: -3.96% and inactive: 3.24%
13,COc1cccc(NC(=O)CSc2nc(=O)[nH]c3c2CCCC3)c1,inactive: -4.15%
14,COc1ccc(-c2[nH]c(-c3ccc(C)cc3)nc2SCC(=O)NCC2CCCO2)cc1 (stereo not drawn),inactive: -31.7%
15,COc1ccc(NC(=O)Cn2c(=O)n(Cc3ccco3)c(=O)c3sc4ccccc4c32)cc1Cl,inactive: -2.13%
16,O=C(Nc1ccc(Cl)cc1)c1ccc2c(c1)N(Cc1ccccc1)CCS2,inactive: -23.9%
17,Cc1ccc(N2CCn3c2nc2c3c(=O)n(Cc3cccc(Cl)c3)c(=O)n2C)cc1C,inactive: -9.68%
18,CC(C)c1ccc(NC(=O)CN2C(=O)C3(SCC(=O)N3c3ccc(F)cc3)c3ccccc32)cc1 (stereo not drawn),inactive: 9.01%
19,CCCOc1ccc(CC2C(=O)Nc3ccc(Br)cc32)cc1 (stereo not drawn),active: 77.9%
20,CCCC12CN3CC(CCC)(CN(C1)C3c1c[nH]c3ccc(OC)cc13)C2=O (stereo not drawn),inactive: -6.04%
21,O=C(CN1C(=O)CCSc2ccc(S(=O)(=O)N3CCCC3)cc21)Nc1ccccc1Cl,inactive: -5.19%
